Laboratory results taken from the supplement of paper PMC12217912.
The other results are listed elsewhere or left out. The full chains were built here from the parent and the listed change. Values near 0.05 are background.

B1: TEV protease; numbered along this chain (parent)
chain: MGESLFKGPRDYNPISSSICHLTNESDGHTTSLYGIGFGPFIITNKHLFRRNNGTLVVQSLHGVFKVKDTTTLQQHLVDGRDMIIIRMPKDFPPFPQKLKFREPQREERICLVTTNFQTKSMSSMVSDTSCTFPSGDGIFWKHWIQTKDGQCGSPLVSTRDGFIVGIHSASNFTNTNNYFTSVPKNFMELLTNQEAQQWVSGWRLNADSVLWGGHKVFMVKPEEPFQPVKEATQL

Variants of: B1
Assay: raw area under fraction-flipped curve 0-4 h after induction (AUC4h, not background-subtracted), DNA-recorder readout of cleavage of the substrate (dimensionless); higher = more cleavage of the substrate by the protease variant
Conditions: temperature: 34 °C; time window: 0-4 h after rhamnose induction
Experimental: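 In vivo DNA recorder in E. coli TOP10(DE3) ΔrhaA at 34 °C. Each TEVp single-site mutant (parent TEVp 0) is paired with a single-site variant of the 7-mer TEVs (canonical ENLYFQ|S). The substrate sits between flexible linkers in a Bxb1-sfGFP-TEVs-SsrA fusion, so cleavage stabilises Bxb1 and speeds flipping of a recombination array, read by NGS. The value is the raw area under the fraction-flipped curve over 0-4 h after rhamnose induction (AUC4h), with ≥20 reads per time point. It is not background-subtracted; inactive controls average about 0.047.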
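Further: Bxb1 expression induced with 0.2% (w/v) L-rhamnose at OD600 near 0.5, cultures sampled hourly, flipped fraction per protease–substrate barcode pair counted by paired-end Illumina sequencing.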

| Variant | area with substrate ENLYFES | area with substrate ENLYFFS | area with substrate ENLYFHS | area with substrate ENLYFIS | area with substrate ENLYFNS | area with substrate ENLYFRS | area with substrate ENLYFTS | area with substrate ENLYFWS | area with substrate ENLYFYS | area with substrate ENLYFDS | area with substrate ENLYFGS | area with substrate ENLYFLS | area with substrate ENLYFMS | area with substrate ENLYFPS | area with substrate ENLYFSS | area with substrate ENLYFVS | area with substrate ENLYFKS | area with substrate ENLYFCS |
| --- | --- | --- | --- | --- | --- | --- | --- | --- | --- | --- | --- | --- | --- | --- | --- | --- | --- | --- |
| D79C | 0.0179 | 0.0539 | 0.0602 | 0.0593 | 0.0422 | 0.037 | 0.0288 | 0.0521 | 0.055 |  |  |  |  |  |  |  |  |  |
| T23F | 0.0596 | 0.0735 | 0.0577 | 0.0523 | 0.0753 | 0.0618 | 0.0571 | 0.0547 | 0.054 | 0.0647 | 0.061 | 0.055 | 0.0843 | 0.0548 | 0.0759 |  |  |  |
| I85E | 0.0468 | 0.0624 |  | 0.0483 |  | 0.0438 |  | 0.0543 |  |  | 0.037 |  | 0.0451 |  | 0.0471 | 0.0578 |  |  |
| Q59C | 0.0713 | 0.0766 |  | 0.0614 |  |  | 0.0473 |  |  | 0.0516 | 0.0483 | 0.0407 | 0.072 | 0.0573 |  |  | 0.0728 |  |
| E195W |  | 0.0762 |  | 0.0461 |  |  | 0.0668 |  | 0.0553 |  | 0.0544 | 0.0641 |  | 0.0559 | 0.0439 |  |  | 0.0602 |
| E195Q | 0.0616 |  | 0.0678 | 0.0583 |  |  |  | 0.0589 |  |  |  |  |  | 0.0633 |  |  |  | 0.0654 |
| T72I | 0.0614 | 0.0622 |  |  | 0.0637 | 0.0908 | 0.0552 |  |  |  |  | 0.122 | 0.0709 |  |  |  |  |  |
| T72M | 0.0645 |  | 0.0769 | 0.0544 |  | 0.0523 |  |  |  |  |  |  |  | 0.0545 |  |  |  |  |
| D149E | 0.0625 | 0.0593 |  | 0.0629 |  | 0.0345 | 0.0559 |  |  | 0.0593 | 0.0795 | 0.0622 |  | 0.0603 |  | 0.0591 | 0.0578 |  |
| M125F |  | 0.0605 |  | 0.0379 |  |  |  | 0.0531 |  | 0.0722 | 0.0632 |  | 0.0726 | 0.0568 | 0.0662 |  | 0.0575 |  |
| N193H | 0.0572 | 0.0671 | 0.0615 | 0.0636 |  |  | 0.0653 |  |  | 0.0701 | 0.06 |  | 0.0935 |  | 0.0712 | 0.0439 |  | 0.0553 |
| A196C |  |  |  | 0.0556 |  |  |  |  |  |  |  |  |  |  |  |  |  | 0.059 |
| L190K | 0.0831 | 0.0755 |  | 0.0544 | 0.0565 |  | 0.0576 |  | 0.0536 | 0.0435 | 0.0476 | 0.0477 | 0.0633 |  | 0.054 |  | 0.0581 | 0.0594 |
| I139K | 0.057 |  | 0.066 |  | 0.0818 | 0.082 | 0.0644 |  | 0.0457 | 0.061 |  | 0.0588 | 0.0652 | 0.0504 | 0.0522 | 0.0694 |  |  |
| S209T | 0.0802 |  |  | 0.0541 |  |  | 0.0633 | 0.0447 | 0.057 |  |  |  |  | 0.0607 |  |  |  | 0.0657 |
| M188G |  |  | 0.0905 | 0.0584 |  |  | 0.0672 | 0.0715 | 0.0576 |  |  | 0.0539 |  | 0.0614 |  |  | 0.0618 | 0.0618 |
| M188V |  | 0.0701 |  | 0.0516 | 0.0792 | 0.0517 |  | 0.0774 | 0.0473 |  | 0.048 | 0.0534 |  | 0.053 | 0.0501 |  |  | 0.0482 |
| M188F | 0.059 | 0.0687 |  | 0.0667 | 0.0626 | 0.0784 |  | 0.0558 |  | 0.0721 |  |  | 0.0678 | 0.0488 | 0.0499 |  |  |  |
